# Measurements: PubChem BioAssay AID504333 (National Center for Advancing Translational Sciences (NCATS), 2011)
# Among all 360,000 compounds or so, about 16,000 (4.4%) were called active. Inconclusive means that the source gave no clear call. Such entries were picked first, then a sample of the others. The call rests on the fitted dose curve; in most records, active means well fitted inhibition curve with a large enough effect; inconclusive means small, poorly fitted or top-dose-only effect; inactive means no such curve, though single readings can be large or run the other way. Potencies beside an inconclusive call are fits to weak or partial responses and may not hold up.
# Biological target: Bromodomain adjacent to zinc finger domain protein 2B (Homo sapiens) (UniProt Q9UIF8)
# Assay: qHTS Assay for Inhibitors of BAZ2B; further: nearly all actives have a fitted effect of over 60% in size
# Conditions: AlphaScreen BAZ2B-H3K14Ac peptide displacement; activity change, negative = inhibition: at 114 µM (top of the series)
# Outline: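 In this displacement format the biotinylated H3(5-23) peptide acetylated at Lys14 serves as ligand at 50 nM, with BAZ2B at 50 nM in PBS pH 7.4 containing 0.01% Tween-20. Donor and acceptor beads are 10 ug/mL final.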
# On the % scale 0 is the no-effect control and ±100 the full control effect; potency means the concentration at half of the fitted maximal effect; tags describe the fitted curve by direction and shape.
# Sequence of UniProt Q9UIF8 (Q9UIF8 whole entry, looked up, the tested form may be a part): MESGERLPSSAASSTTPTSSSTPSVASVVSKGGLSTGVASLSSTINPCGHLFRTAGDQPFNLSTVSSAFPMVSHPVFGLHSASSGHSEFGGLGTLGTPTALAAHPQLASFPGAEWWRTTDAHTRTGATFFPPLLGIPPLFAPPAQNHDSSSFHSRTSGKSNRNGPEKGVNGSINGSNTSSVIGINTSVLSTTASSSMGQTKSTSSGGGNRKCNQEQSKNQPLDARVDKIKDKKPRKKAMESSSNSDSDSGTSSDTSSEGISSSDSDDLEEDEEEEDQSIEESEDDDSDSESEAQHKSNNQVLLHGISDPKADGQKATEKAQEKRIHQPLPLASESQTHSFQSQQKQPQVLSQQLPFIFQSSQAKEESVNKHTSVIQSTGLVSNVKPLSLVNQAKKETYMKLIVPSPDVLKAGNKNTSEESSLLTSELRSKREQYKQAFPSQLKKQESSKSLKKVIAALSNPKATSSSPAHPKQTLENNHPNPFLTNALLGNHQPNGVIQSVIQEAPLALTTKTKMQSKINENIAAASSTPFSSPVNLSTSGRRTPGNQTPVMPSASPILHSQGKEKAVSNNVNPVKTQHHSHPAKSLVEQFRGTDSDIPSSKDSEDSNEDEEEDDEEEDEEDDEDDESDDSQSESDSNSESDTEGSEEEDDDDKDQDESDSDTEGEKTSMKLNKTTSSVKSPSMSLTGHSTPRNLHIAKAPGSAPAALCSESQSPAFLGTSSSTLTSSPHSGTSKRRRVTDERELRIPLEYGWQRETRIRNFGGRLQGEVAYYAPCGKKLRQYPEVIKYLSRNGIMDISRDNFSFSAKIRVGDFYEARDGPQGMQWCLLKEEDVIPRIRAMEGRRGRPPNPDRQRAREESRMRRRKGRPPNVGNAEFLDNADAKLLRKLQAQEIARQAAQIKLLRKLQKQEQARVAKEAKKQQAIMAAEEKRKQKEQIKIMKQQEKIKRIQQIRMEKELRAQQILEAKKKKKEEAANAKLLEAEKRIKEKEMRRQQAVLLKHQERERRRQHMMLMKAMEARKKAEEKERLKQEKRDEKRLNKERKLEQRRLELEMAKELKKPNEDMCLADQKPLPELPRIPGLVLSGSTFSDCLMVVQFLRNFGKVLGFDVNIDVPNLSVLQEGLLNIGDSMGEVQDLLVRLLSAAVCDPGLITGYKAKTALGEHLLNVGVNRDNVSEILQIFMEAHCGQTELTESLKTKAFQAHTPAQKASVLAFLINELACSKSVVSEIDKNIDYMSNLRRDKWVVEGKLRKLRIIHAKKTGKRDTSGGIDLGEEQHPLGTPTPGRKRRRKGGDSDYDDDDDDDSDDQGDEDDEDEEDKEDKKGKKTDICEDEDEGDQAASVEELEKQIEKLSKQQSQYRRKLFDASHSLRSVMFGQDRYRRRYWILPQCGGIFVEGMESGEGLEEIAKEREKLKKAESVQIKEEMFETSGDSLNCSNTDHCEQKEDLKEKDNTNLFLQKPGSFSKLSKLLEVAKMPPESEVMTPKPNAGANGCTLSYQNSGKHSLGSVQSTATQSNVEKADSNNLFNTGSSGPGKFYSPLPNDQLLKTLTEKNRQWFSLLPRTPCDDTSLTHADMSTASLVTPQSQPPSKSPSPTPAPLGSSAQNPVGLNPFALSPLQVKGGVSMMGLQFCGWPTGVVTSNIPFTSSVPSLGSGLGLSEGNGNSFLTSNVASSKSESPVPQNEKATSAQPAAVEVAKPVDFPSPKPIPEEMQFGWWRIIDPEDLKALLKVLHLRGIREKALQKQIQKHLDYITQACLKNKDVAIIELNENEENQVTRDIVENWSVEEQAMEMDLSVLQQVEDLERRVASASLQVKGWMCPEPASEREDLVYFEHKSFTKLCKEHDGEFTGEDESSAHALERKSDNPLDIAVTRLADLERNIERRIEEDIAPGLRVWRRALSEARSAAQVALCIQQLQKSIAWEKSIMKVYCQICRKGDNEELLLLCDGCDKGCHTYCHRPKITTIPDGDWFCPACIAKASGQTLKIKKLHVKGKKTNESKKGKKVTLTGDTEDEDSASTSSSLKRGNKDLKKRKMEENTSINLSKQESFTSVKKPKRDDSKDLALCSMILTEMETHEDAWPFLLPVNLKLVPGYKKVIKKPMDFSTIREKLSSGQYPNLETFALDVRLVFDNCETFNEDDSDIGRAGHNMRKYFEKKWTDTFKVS
Compound,Potency,"activity change, negative = inhibition"
Cc1ccccc1Nc1scc(-c2ccc(Cl)cc2)[n+]1-c1ccccc1C,active: 7.94 µM,
N#Cc1cc2c([nH]c1=O)CCCC2,,inactive: -6.41%
CC1(C)Cc2c(sc3c2C(=O)N(c2ccccc2)C2=NCCN23)CS1,"inconclusive: 89.1 µM [inhibitor, single point]",
CN1CCN(NC(=O)c2ccc(Br)s2)CC1,,inactive: -15.9%
C=C(C)CSc1nc2sc3c(c2c(=O)n1C1CCCCC1)CCN(C)C3,"inconclusive: 79.4 µM [inhibitor, single point]",
CC(C)CNC(=S)N1CCN(Cc2ccc3c(c2)OCO3)CC1,active: 22.4 µM,
COc1ccc(OC)c(C(=O)NC(CC(N)=O)c2ccc(N3CCC(Cc4ccccc4)CC3)c([N+](=O)[O-])c2)c1 (stereo not drawn),active: 44.7 µM,
CCOCCCNC(=S)N1CCN(c2nc(-c3ccc(F)cc3)cs2)CC1,"inconclusive: 50.1 µM [inhibitor, partial curve]",
O=C(Nc1ccc(Cl)cc1)OCCn1nnnc1C(c1ccccc1Cl)N1CCOCC1 (stereo not drawn),,inactive: -3.09% [at 57.1 µM]
Cc1cc(C)c(NC(=O)C2CCCN(C(=O)c3cnn(-c4ccccc4)c3-n3cccc3)C2)c(C)c1 (stereo not drawn),,inactive: -11.4%
CCc1ccccc1NC(=O)c1ccc2c(c1)c(C)c(C)n2Cc1ccccc1,"inconclusive: 31.6 µM [inhibitor, full curve, poor fit]",
COC(=O)c1cc(C(=O)N2CCc3ccccc32)cc([N+](=O)[O-])c1,"inconclusive: 89.1 µM [inhibitor, single point]",
COc1cccc(CN2CCNC(=O)C2CC(=O)NCCCn2ccnc2)c1 (stereo not drawn),"inconclusive: 89.1 µM [inhibitor, single point]",
Cc1ccc(C(=O)C2=C(O)C(=O)N(Cc3ccco3)C2c2cccc(Br)c2)o1 (stereo not drawn),"inconclusive: 39.8 µM [inhibitor, partial curve]",
Cc1[nH]c(=O)[nH]c1C(=O)CCCCC(=O)OCC(=O)Nc1ccccn1,active: 0.891 µM,
COc1ccc(N=C2SC(C(=O)N3CCN(c4ccccc4)CC3)CC(=O)N2C)cc1 (stereo not drawn),"inconclusive: 79.4 µM [inhibitor, partial curve]",
COc1ccccc1C(=O)Nc1ccc(C(=O)OCc2cc(=O)n3c4c(sc3n2)CCCC4)cc1,"inconclusive: 89.1 µM [inhibitor, single point]",
O=[N+]([O-])c1ccc(-c2cnc(SCc3ccccc3Cl)[nH]2)cc1,active: 31.6 µM,
O=C(NCc1ccco1)c1cc2cc(Br)ccc2o1,"inconclusive: 50.1 µM [inhibitor, partial curve]",
COc1ccc(CCNC(=O)c2ccc(Cn3c(SCc4ccccc4)nc4cccnc43)cc2)cc1,,inactive: 2.94%
COc1ccccc1C(=O)NNC(=O)c1ccc(NS(=O)(=O)c2cccs2)cc1,,inactive: -19.6%
COC(=O)c1cn(NC(=O)Cc2ccc(OC)c(OC)c2)c(=O)c2ccccc12,,inactive: -2.82%
Cc1ccc(C)c(OCCC(=O)Nc2ccc(S(=O)(=O)N3CCCC3)cc2)c1,,inactive: -18.3%
CC(C)c1cccc(OCCN2CCCC2)c1,"inconclusive: 89.1 µM [inhibitor, single point]",
CC(C)[C@H](NC(=O)[C@@H]1Cc2ccccc2CN1C(=O)OC(C)(C)C)C(=O)NC1CCCC1,,inactive: -16.8%

Compound,Potency,"activity change, negative = inhibition"
Cc1ccc(CNC(=O)c2c(Nc3ccccc3C)sc(C(=O)c3ccc(F)cc3)c2N)cc1,"inconclusive: 35.5 µM [inhibitor, partial curve]",
C/C(CC(=O)Nc1ccc(N(C)C)cc1)=N\NC(=O)c1ccncc1,,inactive: -32.9%
COCCCNCCOc1ccc(C(C)(C)c2ccccc2)cc1,"inconclusive: 79.4 µM [inhibitor, single point]",
Cc1nc(SC(C)C(=O)Nc2cccc(C(F)(F)F)c2)c2c(C)c(C(=O)O)sc2n1 (stereo not drawn),"inconclusive: 89.1 µM [inhibitor, single point]",
CC(C)c1cc(=O)n2[nH]c(SCc3ccccc3)nc2n1,,inactive: 0.146%
CC(NC(=O)C(=O)Nc1nccs1)c1ccccc1 (stereo not drawn),"inconclusive: 89.1 µM [inhibitor, single point]",
O=C(OCCc1ccccc1)c1cc(O)c(O)c(O)c1,"inconclusive: 89.1 µM [inhibitor, single point]",
Cc1nn(C(=O)CCC(=O)NCc2ccc(OC(C)C)cc2)c2ccccc12,,inactive: -10%
CC(C)C12CN3CC(C(C)C)(CN(C1)C3(C)C)C2=O,"inconclusive: 89.1 µM [inhibitor, single point]",
COc1ccc(/C=C/C(=O)Nc2ccc(-n3nncc3-c3ccccc3)cc2)cc1OC,,inactive: 1.83%
S=C1NC2(CCCCC2)NN1c1ccccc1,active: 79.4 µM,
CCC1C/C(=C/c2cccs2)C(=O)/C(=C/c2cccs2)C1 (stereo not drawn),"inconclusive: 6.31 µM [inhibitor, full curve, poor fit]",
CCCCCSc1nnc2c(n1)OC(c1cccn1C)N(C(C)=O)c1ccccc1-2 (stereo not drawn),"inconclusive: 79.4 µM [inhibitor, single point]",
Cc1ccc(CNCC(=O)Nc2cccc(S(=O)(=O)NC3=NCCCCC3)c2)cc1,"inconclusive: 79.4 µM [inhibitor, partial curve]",
Cc1cc(NC(c2ccc(Cl)cc2)c2ccc3cccnc3c2O)no1 (stereo not drawn),active: 44.7 µM,
CCc1ccccc1NC(=O)Nc1cccn(Cc2ccc(F)cc2)c1=O,"inconclusive: 20 µM [inhibitor, full curve, poor fit]",
Cc1nc(-c2ccc(C(=O)Nc3ccc(F)cc3)cc2)cs1,"inconclusive: 89.1 µM [inhibitor, single point]",
COc1ccc(OC)c(NC(=O)CCN2CCN(C/C=C/c3ccccc3)CC2)c1,"inconclusive: 70.8 µM [inhibitor, single point]",
Cn1nnnc1SCc1nnc(-c2ccc(Cl)cc2)o1,,inactive: -14.6%
CN(CC(=O)NCCc1ccccc1)S(=O)(=O)c1ccc(Br)s1,,inactive: 0.455%
CC(=O)NC(NC(=S)Nc1ccc(N=Nc2ccccc2C)cc1C)C(Cl)(Cl)Cl (stereo not drawn),"inconclusive: 50.1 µM [inhibitor, partial curve]",
O=c1c2c([N+](=O)[O-])cc([N+](=O)[O-])cc2sn1-c1ccc(Br)cc1,active: 5.01 µM,
COc1ccc(CCNC(=O)CCCn2nc(C)n3ccnc3c2=O)cc1OC,"inconclusive: 3.16 µM [inhibitor, single point]",
Cn1ncc(Cl)c1C(=O)Nc1nc2ccc(Cl)cc2s1,,inactive: -4.02%
Cc1cc(NC(=O)CSc2nc3ccsc3c(=O)n2Cc2ccccn2)n[nH]1,active: 79.4 µM,

Compound,Potency,"activity change, negative = inhibition"
COc1ccc(C2CC(=O)N(CC(=O)NCC3CCCO3)c3ccccc3S2)cc1 (stereo not drawn),,inactive: 6.41%
CCCN(CC(=O)Nc1ccccc1C)C(=O)c1ccc2[nH]c3c(c2c1)CC(C)CC3 (stereo not drawn),"inconclusive: 39.8 µM [inhibitor, full curve, poor fit]",
O=S(=O)(N/N=C/c1ccc2c(c1)OCO2)c1ccc(Br)cc1,,inactive: -15%
O=C(CSc1nc2nc(-c3cccs3)cc(C(F)(F)F)c2c(=O)[nH]1)Nc1c(F)c(F)c(F)c(F)c1F,,inactive: -20.8%
O=C(c1cccc([N+](=O)[O-])c1)c1ccc2c(c1)C(=O)NC2=O,"inconclusive: 70.8 µM [inhibitor, single point]",
CCOC(=O)C(NCc1ccccn1)(NC(=O)c1cccnc1)C(F)(F)F (stereo not drawn),active: 56.2 µM,
CCCCn1c(=O)[nH]c(=O)c2c1nc(CN1C(=O)c3ccccc3S1(=O)=O)n2CCC,,inactive: 4%
O=C(CSc1nnc(-c2ccco2)c(-c2ccco2)n1)c1ccccc1,,inactive: -1.28%
Cc1c(C(=O)OCCOC(C)C)[nH]c2c1C(=O)CC(c1ccco1)C2 (stereo not drawn),active: 50.1 µM,
COc1cccc(-c2nc(-c3ccc(NC(=O)c4ccncc4)cc3)no2)c1,"inconclusive: 50.1 µM [inhibitor, partial curve]",
Cc1ccc(-c2nc(CN3CCN(c4cnccn4)CC3)c(C)o2)o1,"inconclusive: 89.1 µM [inhibitor, single point]",
COc1ccccc1Nc1c2c(nc3ccc(NC(=O)c4ccc(N(C)C)cc4)cc13)CCCC2,active: 3.98 µM,
CC1(C)C2CCC(C2)C1(C)NC(=O)CN1CCCC1 (stereo not drawn),"inconclusive: 79.4 µM [inhibitor, single point]",
O=C(c1ccc(Cl)cc1)c1ccc(Oc2cc(NN3CCCCC3)c([N+](=O)[O-])cc2[N+](=O)[O-])cc1,"inconclusive: 100 µM [inhibitor, partial curve, poor fit]",
CSc1nc(N2CCN(Cc3ccc4c(c3)OCO4)CC2)c2ccccc2n1,"inconclusive: 56.2 µM [inhibitor, single point]",
Cc1ccc(-n2c(=O)c3oc4ccccc4c3n(Cc3cccc(F)c3)c2=O)cc1C,"inconclusive: 79.4 µM [inhibitor, single point]",
CC1CCCC(C)N1NC(=O)c1cccc(S(=O)(=O)N2CCc3ccccc32)c1 (stereo not drawn),"inconclusive: 79.4 µM [inhibitor, single point]",
COc1ccc(O)c(-c2cc(-c3ccccc3Cl)[nH]n2)c1,"inconclusive: 31.6 µM [inhibitor, full curve]",
C=CCN(C(=O)CSC1=NC(=O)CN1C(C)=O)c1nc(C)c(-c2ccccc2)s1,active: 35.5 µM,
COc1ccc(CNc2ncc(-c3ccc(F)cc3)n2C)c2ccccc12,active: 50.1 µM,
N/C(=N\OC(=O)N1c2ccccc2Sc2ccccc21)c1ccc(Br)cc1,"inconclusive: 44.7 µM [inhibitor, partial curve]",
CCN(CC)c1ccc2c(c1)CCCN2,active: 44.7 µM,
CN1C=CC2=C(C#N)C(N)C(C#N)(C#N)[C@H](c3ccccc3)[C@H]2C1 (stereo partly drawn),,inactive: -8.7%
